Data reported in ChEMBL document CHEMBL5606460, “ASAP - DENV-2 NS2B-NS3 protease fluorescence single point” (2024).
Screen size: about 2,000 compounds; about 110 (5.5%) showed an effect of 50% or more. The list shows a part of the results.

Biological target: Genome polyprotein (dengue virus type 2) (UniProt P29990)
[1] = Thailand/16681/1984, Concentration 25.0 uM, Number of replicates 1.0

## CCCCCC(=O)N[C@H](C(=O)NCc1ccc(N)nc1)c1ccc(OCc2ccccc2)cc1
Thailand/16681/1984, Concentration 49.5 uM, Number of replicates 2.0, Standard deviation 0.5514996049599625 %
  inhibition: -5.35%
Thailand/16681/1984, Concentration 99.01 uM, Number of replicates 2.0, Standard deviation 6.42872691267386 %
  inhibition: 2.25%
Thailand/16681/1984, Concentration 198.0 uM, Number of replicates 2.0, Standard deviation 0.7744386054656718 %
  inhibition: -1.4%

## O=Cc1ccc(N2CCC(C(=O)Nc3ccccc3Oc3ccccc3)CC2)cc1
[1]
  inhibition: 14.2%

## O=Cc1ccc(N2CCC(C(=O)Nc3ccccc3Sc3ccccc3)CC2)cc1
[1]
  inhibition: 12.1%

## CC(C)CCN(CCC(C)C)C(=O)C1CCN(c2ccc(C=O)cc2)CC1
[1]
  inhibition: 14.1%

## CNC(=O)c1cc(Cl)ccc1NS(=O)(=O)c1cccc(CN(C)C)c1
Thailand/16681/1984, Concentration 49.5 uM, Number of replicates 2.0, Standard deviation 0.23875835647893978 %
  inhibition: -0.451%
Thailand/16681/1984, Concentration 99.01 uM, Number of replicates 2.0, Standard deviation 0.04440904899457988 %
  inhibition: 0.244%
Thailand/16681/1984, Concentration 198.0 uM, Number of replicates 2.0, Standard deviation 0.006207725023472561 %
  inhibition: 1.15%

## CC(C)Nc1nc2ccc(C(=O)Nc3cc(-c4nccn4C)n[nH]3)cc2[nH]1
Thailand/16681/1984, Concentration 49.5 uM, Number of replicates 2.0, Standard deviation 0.1078455245570697 %
  inhibition: -3.38%
Thailand/16681/1984, Concentration 99.01 uM, Number of replicates 2.0, Standard deviation 0.6053443955687522 %
  inhibition: -5.01%
Thailand/16681/1984, Concentration 198.0 uM, Number of replicates 2.0, Standard deviation 0.5728282705299915 %
  inhibition: -7.32%

## O=c1c2ccccc2ncn1C1CN(Cc2c[nH]c3ccccc23)C1
Thailand/16681/1984, Concentration 49.5 uM, Number of replicates 2.0, Standard deviation 0.9406116594391499 %
  inhibition: -0.283%
Thailand/16681/1984, Concentration 99.01 uM, Number of replicates 2.0, Standard deviation 0.7556417116224043 %
  inhibition: -0.297%
Thailand/16681/1984, Concentration 198.0 uM, Number of replicates 2.0, Standard deviation 0.5108694529395815 %
  inhibition: 1.4%

## COC(=O)[C@@H](C)NC(=O)Cc1cc(OC)nc(N2CCNCC2)n1
Thailand/16681/1984, Concentration 49.5 uM, Number of replicates 2.0, Standard deviation 1.2325155060163866 %
  inhibition: -0.382%
Thailand/16681/1984, Concentration 99.01 uM, Number of replicates 2.0, Standard deviation 1.7034196734708464 %
  inhibition: -0.714%
Thailand/16681/1984, Concentration 198.0 uM, Number of replicates 2.0, Standard deviation 0.018555769747303108 %
  inhibition: -0.002%

## COC(=O)c1ccc(F)c(Cn2ncc(C3CCNCC3)c2C)c1
Thailand/16681/1984, Concentration 49.5 uM, Number of replicates 2.0, Standard deviation 1.7959816127929562 %
  inhibition: -0.703%
Thailand/16681/1984, Concentration 99.01 uM, Number of replicates 2.0, Standard deviation 0.6985577144345978 %
  inhibition: -0.026%
Thailand/16681/1984, Concentration 198.0 uM, Number of replicates 2.0, Standard deviation 2.047440627042714 %
  inhibition: 1.74%

## O=Cc1ccc(N2CCC(C(=O)NC3C4CC5CC(C4)CC3C5)CC2)cc1 (centres undefined)
[1]
  inhibition: 6.37%

## COC(=O)c1cncc(C(=O)Nc2ccncc2C)c1
Thailand/16681/1984, Concentration 49.5 uM, Number of replicates 2.0, Standard deviation 6.3209660189886 %
  inhibition: 2.4%
Thailand/16681/1984, Concentration 99.01 uM, Number of replicates 2.0, Standard deviation 0.9582277355643998 %
  inhibition: -1.8%
Thailand/16681/1984, Concentration 198.0 uM, Number of replicates 2.0, Standard deviation 0.7051109593221626 %
  inhibition: -2.38%

## N#Cc1cccc(NC(=O)c2cccc(OCc3c(Cl)cccc3Cl)c2)c1
Thailand/16681/1984, Concentration 49.5 uM, Number of replicates 2.0, Standard deviation 0.9750482899240065 %
  inhibition: 1.9%
Thailand/16681/1984, Concentration 99.01 uM, Number of replicates 2.0, Standard deviation 10.511808397875392 %
  inhibition: 16.1%
Thailand/16681/1984, Concentration 198.0 uM, Number of replicates 2.0, Standard deviation 5.918696266313343 %
  inhibition: 7%

## Cc1cnccc1NC(=O)c1cncc(S(C)(=O)=O)c1
Thailand/16681/1984, Concentration 49.5 uM, Number of replicates 2.0, Standard deviation 0.09362930826064811 %
  inhibition: 1.61%
Thailand/16681/1984, Concentration 99.01 uM, Number of replicates 2.0, Standard deviation 0.10343333957385824 %
  inhibition: 2.02%
Thailand/16681/1984, Concentration 198.0 uM, Number of replicates 2.0, Standard deviation 0.39657621920361824 %
  inhibition: 2.99%

## Cc1ccc([N+](=O)[O-])c(NC(=O)C2CCN(c3ccc(C=O)cc3)CC2)c1
[1]
  inhibition: 13.9%

## CCOC(=O)[C@H]1CCCN(C(=O)C2CCN(c3ccc(C=O)cc3)CC2)C1
[1]
  inhibition: 11.6%

## Cc1cc(CO)c2cccc(Cc3cccc(C(=O)Nc4cccc(C(N)=O)c4)c3)c2n1
Thailand/16681/1984, Concentration 49.95 uM, Number of replicates 2.0, Standard deviation 0.8487279472032775 %
  inhibition: 0.063%
Thailand/16681/1984, Concentration 99.9 uM, Number of replicates 2.0, Standard deviation 0.25943340872226184 %
  inhibition: 4.4%

## Clc1ccc2[nH]cc(Cc3ccc(-c4nn[nH]n4)cc3)c2c1
Thailand/16681/1984, Concentration 99.5 uM, Number of replicates 2.0, Standard deviation 0.137702183454793 %
  inhibition: 89.8%
Thailand/16681/1984, Concentration 295.6 uM, Number of replicates 2.0, Standard deviation 0.013886206472581278 %
  inhibition: 98.9%

## NCc1cccc(NC(=O)[C@H]2Cc3ccccc3N2C(=O)OCc2ccccc2)c1
Thailand/16681/1984, Concentration 49.5 uM, Number of replicates 2.0, Standard deviation 2.491282682389966 %
  inhibition: -5.82%
Thailand/16681/1984, Concentration 99.01 uM, Number of replicates 2.0, Standard deviation 3.038508091148741 %
  inhibition: -5.62%
Thailand/16681/1984, Concentration 198.0 uM, Number of replicates 2.0, Standard deviation 5.577097576419093 %
  inhibition: 10.2%

## O=Cc1ccc(N2CCC(C(=O)Nc3ccc(Cl)c(Cl)c3)CC2)cc1
[1]
  inhibition: 11.8%

## CN1CCN(Cc2cccc(CNC(=O)C3CCN(c4ccc(C=O)cc4)CC3)c2)CC1
[1]
  inhibition: 9.88%

## Cc1cc(CO)c2cccc(CC(=O)N3CCC(C(=O)O)CC3)c2n1
Thailand/16681/1984, Concentration 49.95 uM, Number of replicates 2.0, Standard deviation 2.0194119612586054 %
  inhibition: -5.53%
Thailand/16681/1984, Concentration 99.9 uM, Number of replicates 2.0, Standard deviation 1.900115643723308 %
  inhibition: -3.5%
